Measurements as given in article PMC6919601, “Identification of Plasmodium dipeptidyl aminopeptidase allosteric inhibitors by high throughput screening” (PLoS ONE, 2019).
About 230 (0.21%) of roughly 110,000 compounds showed an effect of 50% or more. This is one part of the list.

Target: DPAP1 (Plasmodium falciparum, UniProt Q8IIJ9)
Assay: primary screen, percent inhibition; read by cleavage of a fluorogenic dipeptide substrate; higher = more effect of the substance
Design: species or system P. falciparum D10 trophozoite lysates; single well
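Note: 30 min substrate incubation versus DMSO and 10 µM JCP410 controls.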

DPAP1, sequence (Q8IIJ9 whole entry, looked up): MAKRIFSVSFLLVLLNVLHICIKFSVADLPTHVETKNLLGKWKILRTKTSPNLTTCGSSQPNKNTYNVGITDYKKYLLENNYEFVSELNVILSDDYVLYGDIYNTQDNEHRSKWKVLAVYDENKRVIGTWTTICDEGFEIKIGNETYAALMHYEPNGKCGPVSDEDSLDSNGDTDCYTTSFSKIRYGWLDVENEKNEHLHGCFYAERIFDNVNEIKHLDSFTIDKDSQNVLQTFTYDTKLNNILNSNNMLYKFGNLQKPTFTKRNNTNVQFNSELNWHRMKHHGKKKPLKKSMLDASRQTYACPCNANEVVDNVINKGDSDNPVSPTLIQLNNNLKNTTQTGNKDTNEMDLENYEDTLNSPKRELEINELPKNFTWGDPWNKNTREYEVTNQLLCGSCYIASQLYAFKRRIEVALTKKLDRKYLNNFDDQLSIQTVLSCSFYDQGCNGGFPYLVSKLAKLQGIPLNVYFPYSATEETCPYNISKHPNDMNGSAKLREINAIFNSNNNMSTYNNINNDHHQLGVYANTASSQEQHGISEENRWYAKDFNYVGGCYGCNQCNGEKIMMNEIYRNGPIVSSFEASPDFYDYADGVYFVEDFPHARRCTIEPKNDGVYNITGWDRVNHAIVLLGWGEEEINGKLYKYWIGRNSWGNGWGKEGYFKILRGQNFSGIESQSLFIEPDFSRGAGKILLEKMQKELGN

Structure (SMILES) | % Inhibition @ 10 uM [%]
COc1ccc(S(N)(=O)=O)cc1C(=O)NC1CCN(C)CC1 | -5.45
CC(C)C12CN3CN(C1)CC(C(C)C)(C3)C2=O | -0.807
Cc1cn2cc(-c3ccc4ccccc4c3)nc2s1 | -2.2
Cc1ccc(CN2CCN(c3cccc(C(F)(F)F)c3)CC2)c(C)c1 | -0.127
CCOC(=O)N1CCC(NC(=O)C(NC(=O)C2CCC(C)CC2)C(C)CC)CC1 (stereo not shown) | -0.972
Cc1ccc(NC(=O)Nc2cc(Cl)ccc2Cl)cc1 | 0.161
CC(NCc1ccccc1Cl)c1ccccc1 (stereo not shown) | 2.01
CCN1C(=O)c2ccc(C(=O)Nc3cccc(C(=O)NC(C)(C)C)c3)cc2C1=O | -4.39
O=C(CCc1ccccc1)Nc1ccc(S(=O)(=O)N2CCCCC2)cc1 | 0.408
CN(C)CC(=O)c1ccc2cc[nH]c2c1 | -1.08
O=C(Nc1c2c(nn1-c1ccc(Cl)cc1)CS(=O)(=O)C2)c1ccc2c(c1)OCO2 | 1.45
Cc1nn(S(=O)(=O)c2ccc(Br)cc2)c(C)c1Sc1ccccc1 | -0.736
Cc1ccc(N(Cc2ccc(C(=O)Nc3ccc(C(N)=O)cc3)cc2)S(C)(=O)=O)cc1C | 0.727
Cc1nc(=O)c(-c2ccccc2)c(C)n1-c1ccccc1 | 2.22
Cc1cccc(NC(=O)C(NS(=O)(=O)c2ccc3nc(C)sc3c2)C(C)C)n1 (stereo not shown) | -1.7
O=C1C2C3c4ccccc4C(c4ccccc43)C2C(=O)N1c1ccc(Cl)cc1 (stereo not shown) | -2.47
CCCN1C(=O)c2n[nH]c(C)c2C1c1cccnc1 (stereo not shown) | -4.67
NC(=O)c1ccc(NC(=O)C2CCCCC2C(=O)O)cc1 (stereo not shown) | -5.15
CC(C)(C)c1cc(C(=O)Nc2cccc3ccccc23)cc(C(C)(C)C)c1 | -5.33
CN1CCN(S(=O)(=O)c2ccc(C(=O)O)cc2)CC1 | 1.7
COc1ccc(C(=O)Nc2cccc3c2CCCC3)c(OC)c1 | 17.1
Oc1c(/C=N/c2cccc(Cl)c2)sc2ccccc12 | 1.37
Cc1ccc(NS(=O)(=O)c2cc(C(=O)O)c(Cl)cc2Cl)cc1C | -6.68
Cc1ccc(OCC(=O)N2CCOCC2)c(Br)c1 | 6.83
Cc1cc(NC(=O)c2cc(-c3ccc(O)cc3)on2)n(-c2ccccc2)n1 | 3.89
CSc1nc2ccccc2n1C1CCCCC1 | -1.55

Structure (SMILES) | % Inhibition @ 10 uM [%]
CCOc1cc(CNCCSc2nnnn2C)cc(Br)c1OCC | -1.71
Cc1ccc(CN(C(=O)C(C)Oc2ccc(C(C)C)cc2)C2CCS(=O)(=O)C2)o1 (stereo not shown) | -2.85
COc1ccc(C(=O)/C=C/c2ccc(C)cc2)c(OC)c1 | 2.54
COc1ccccc1NC(=O)CSc1nc(C)c2c(c1C#N)CCCC2 | -2.45
COc1ccc(S(=O)(=O)N2CCN(C3CCC(C)CC3)CC2)cc1 (stereo not shown) | 6.91
C=CCOC(=O)C1=C(C)N=C(C)/C(=C(/O)OCC=C)C1/C=C/c1ccccc1 (stereo not shown) | -1.93
CCOC(=O)N1CCN(C(=O)C2CCN(S(=O)(=O)N(CC)CC)CC2)CC1 | 0.955
CC1=C(C(=O)NCCCN2C(C)CCCC2C)C2(CCCCC2)OC1=O (stereo not shown) | 3.72
CC1CCCCN1c1nnc(NC(=O)NCc2ccc(F)cc2)s1 (stereo not shown) | -2.85
CCn1cc(NC(=O)NCC2CCCCC2)c(=O)c2ccc(C)nc21 | 2.29
CCCC(=O)c1c(C)[nH]c(C(=O)OCC)c1C | 3.03
CCc1nc2ccccc2n1Cc1ccc(C(C)(C)C)cc1 | 1.13
O=C(NCc1cccnc1)c1cc2nc(-c3ccco3)cc(C(F)(F)Cl)n2n1 | 1.81
C=Cc1ccc(Cn2c(C)c(CNCCc3ccc(OCC)c(OCC)c3)c(C(=O)O)c2C)cc1 | -0.23
Cn1c(=O)c2c(n(C)c1=O)[n+](C)cn2Cc1ccccc1 | 4.1
COc1ccc(OC)c(NS(=O)(=O)CC(C)C)c1 | -0.13
CC(NC(=O)C(NS(=O)(=O)c1cccc2nsnc12)C(C)C)c1ccccc1 (stereo not shown) | -4.34
Cc1c(Cl)c(C(=O)NC2C3CC4CC(C3)CC2C4)nn1C (stereo not shown) | 2.38
N#CCc1ccc(NC(=O)c2ccc(Br)o2)cc1 | -8.48
CCCCSCCCNC(=O)CSCc1nc(-c2ccc(OC)c(OC)c2)oc1C | -1.05
Cc1ccc(/C=C2\N=C(c3cncc(Br)c3)OC2=O)cc1 | -0.0894
N#CCCN1c2ccccc2Sc2ccc(Cl)cc21 | 3.06
O=C1Cc2ccccc2C(c2cccc(Cl)c2Cl)N1 (stereo not shown) | -4.35
CCOc1ccccc1N1CCN(C(=O)c2c(OC)cccc2OC)CC1 | -8.49
COc1cc2c(cc1OC)C1C(C(=O)N(C)Cc3ccccc3)c3ccccc3C(=O)N1CC2 (stereo not shown) | 4.56
COc1cccc(OC)c1C(=O)Nc1cc(C)ccn1 | -1.41

Structure (SMILES) | % Inhibition @ 10 uM [%]
Nc1c(-c2ccccc2)n[nH]c1-c1ccccc1 | 3.44
CC1(C)Cc2c(c(N3CCOCC3)nc3sc4c(=O)n(-c5ccccn5)cnc4c23)CO1 | -5.41
O=C1c2ccccc2C(=O)C1c1ccncc1 | -1.59
COc1ccc(CCNS(=O)(=O)c2ccc(-c3cc(C(F)(F)F)no3)s2)cc1OC | 3.57
CCOc1ccc2nc(NC(=O)Cc3nn(C)c(=O)c4ccccc34)sc2c1 | -0.458
CCOC(=O)c1cnc2c(OC)cccc2c1NCCCN(CC)CC | 13.6
Cc1ccc(-n2cnc3cc(NCc4ccco4)ccc32)cc1 | -2.65
COc1cccc(/C=c2/sc3n(c2=O)C(N)=C(C#N)C(c2cccc(OC)c2)C=3C#N)c1 (stereo not shown) | 13.2
COC(=O)C1=C(N)OC2=C(C(=O)CCC2)C1c1cc(CSc2nc3ccccc3s2)cs1 (stereo not shown) | 7.16
NS(=O)(=O)c1ccc(NC(=O)Nc2cccc3ccccc23)cc1 | -1.32
O=C(CSc1nnc(-c2ccncc2)n1-c1ccccc1)NCc1ccc(F)cc1 | 1.88
CCOC(=O)c1[nH]c(C)c(C(=O)C(C)C)c1C | 1.08
CCN1C(=O)C2(C(C#N)=C(N)Oc3[nH]nc(COC)c32)c2ccccc21 (stereo not shown) | -0.968
C=CCNc1nnc(C)c2nnn(Cc3ccccc3Cl)c12 | 1.67
CC(=O)N(CCC(c1ccccc1)c1ccco1)Cc1ccc(OC(C)C)cc1 (stereo not shown) | 4.74
O=C(CSCc1c(Cl)cccc1Cl)NCC1CCCO1 (stereo not shown) | 2.38
CC(C)(C)c1[nH]nc2c1C1(C(=O)Nc3ccccc31)C(C#N)=C(N)O2 (stereo not shown) | -2.53
Cc1ccc(C2=NS(=O)(=O)N(C)C(C(=O)Nc3ccn(Cc4ccccc4C)n3)=C2)cc1 | 0.655
COC(=O)c1ccccc1Nc1nc(-c2ccc(OC)cc2)cc(-c2ccc(OC)cc2)n1 | 3.06
COc1ccccc1C1=N/C(=C/c2ccc(C(=O)O)cc2)C(=O)O1 | 4.32
Cc1[nH]nc2c1C(c1cccc(O)c1)N(C)C2=O (stereo not shown) | -10.6
COc1ccc(C(=O)N2CCN(Cc3ccc(Br)cc3)CC2)cc1 | 6.24
CCOC(=O)C1CCN(Cc2ccccc2F)CC1 | -1.92
O=C(OCCCNC1=NS(=O)(=O)c2ccccc21)c1ccc(S(=O)(=O)N2CCCCC2)cc1 | 4.54
Clc1ccc(-c2ncnn2-c2ccc(Br)cn2)c(Cl)c1 | 2.65
COc1ccc(-c2cn3nc(N4CCCC(C(=O)NCc5ccco5)C4)sc3n2)cc1 (stereo not shown) | 3.7

Structure (SMILES) | % Inhibition @ 10 uM [%]
Cc1ccc(Cn2c(S)nc3c2c(=O)n(C)c(=O)n3C)cc1 | 1.8
COc1ccc(CCCC(=O)O)c2ccccc12 | -1.79
COc1ccccc1CN1COc2c(cc3c4c(c(=O)oc3c2C)CCC4)C1 | -4.39
C1=C(c2ccc3c(c2)c2c4n3CCN(Cc3ccccc3)C4CCC2)C2CCN1CC2 (stereo not shown) | 70.5
c1ccc(-n2nnnc2SCCNCc2cccs2)cc1 | 2.25
c1ccc(-c2nc(C34CC5CC(CC(C5)C3)C4)co2)cc1 | -4.27
Cc1c(C(=O)N2CCOCC2)[nH]c2ccc(OCc3ccccc3)cc12 | -1.36
COc1ccccc1OCC(=O)Nc1nonc1NC(=O)COc1ccccc1OC | -10.6
N#CCNC(=O)C(CC1CCCCC1)C(=O)Nc1ccc(C(N)=O)cc1 (stereo not shown) | -5.21
O=C(CC(c1ccccc1)c1ccccc1)Nc1ccccn1 | -7.3
O=C(NCc1cccn1Cc1ccccc1)NC1CCCC1 | -0.0894
c1ccc2c(c1)-c1ccccc1C2N1CCNCC1 | -3.77
CC1CCN(C2CCN(CCc3ccccc3)CC2)CC1 | -4.01
CSC1=C(C#N)C(c2ccc(Cl)cc2)CC(=O)N1 (stereo not shown) | 0.912
COc1ccc(CCNC(=O)c2cc3c(=O)oc4ccccc4c3s2)cc1OC | 0.121
c1ccc2c3c(c(CN4CCOCC4)cc2c1)COC3 | -2.6
COc1cc(/C=C2/C=C(c3ccc(C(C)C)cc3)OC2=O)cc(OC)c1OC | -3.74
CCC(=O)Nc1cc2nn(-c3ccc(C)cc3)nc2cc1Cl | 1.35
Clc1ccccc1OCCCCCCN1CCCCC1 | -5.84
Cc1ccc(CNC(=O)/C=C/C(=O)O)cc1 | 1.42
COc1ccc(CN2CCSCC2)c(OC)c1OC | -1.92
Cc1nnc2sc(-c3ccc(Cl)cc3)cc(=O)n12 | -4.73
COc1ccc(Cc2nc3c4cnn(-c5ccccc5F)c4ncn3n2)cc1OC | -6.5
Cc1nn(CC(=O)NCC(C)c2ccccc2)c(=O)c2cc3cc(F)ccc3n12 (stereo not shown) | 1.68
CCCCCC(=O)NCCCCC(=O)O | -4.24
